# The list shows a part of the results.
# System: T1, C. trachomatis L2/434/Bu expressing GFP (CTL2-GFP)
# T1 construct: L2/434/Bu GFP intracellular growth in HeLa cells
# Set-up: species or system HeLa; C. trachomatis total inclusion area by high-content imaging, normalised to DMSO
# Conditions: total inclusion area; 28.5 h, 10 µM; inhibitor
# Summary of the method: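 Imaging read-out: GFP inclusions and Hoechst nuclei captured by high-content imaging after fixation. Inclusion area/number = chlamydial growth; nuclei count = host cell viability. MIC calculated per earlier method.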
row,SMILES,% of control remaining
1,CS(=O)(=O)c1ccc(Nc2ncnc(N3CCC(Sc4ccccc4)CC3)c2[N+](=O)[O-])cc1 [CBK113567],113.026
2,O=C(c1cc(Cl)c[nH]1)N1CCN(Cc2cc(=O)n3ccsc3n2)CC1 [CBK306313],102.847
3,O=C(CN1C2CCC1CC(O)(c1ccco1)C2)N1CCCC1 (centres unmarked) [CBK284042],80.6873
4,Oc1cccc(OCCOc2cc(C(F)(F)F)ccn2)c1 [CBK115788],82.1507
5,Nc1nc(OCCc2cccs2)cnc1-c1ccc(OC(F)(F)F)cc1 [CBK145116],58.668
6,O=C(Nc1ccc(Cc2ccncc2)cc1)c1sc2c([N+](=O)[O-])cccc2c1Cl [CBK269635],88.7752
7,Cn1c(=O)oc2cc(S(=O)(=O)Nc3cccc(CCc4ccccn4)c3)ccc21 [CBK286357],87.1187
8,c1cn2cnnc2c(N2CCc3sccc3C2)n1 [CBK305180],82.9543
9,Cc1nc(C)n(CC2CCCN(c3ncnc4ccsc34)C2)n1 (centres unmarked) [CBK304037],61.4887
10,O=C(O)CCCNS(=O)(=O)c1ccc(I)cc1 [CBK269160],102.506
11,COc1ccc(-c2ccc3c(c2)C(=O)N2CC[C@H](NC(=O)CCC(=O)O)[C@H]2C(=O)N3)cc1 [CBK289331],105.517
12,COC(=O)c1c(NC(=S)Nc2ccccc2)sc(Cc2ccccc2)c1C [CBK263501],108.156
13,COc1cccc(C2C(C(=O)c3ccc(Cl)cc3)=C(O)C(=O)N2CCN2CCOCC2)c1 (centres unmarked) [CBK264901],75.6217
14,O=C(O)CNC(=O)/C(=C\c1ccccc1F)NC(=O)c1ccccc1 [CBK263961],95.8689
15,O=S(=O)(c1ccccc1)n1c(CO)cc2c(C(F)(F)F)cc(CN3CCNCC3)cc21 [CBK143799],93.4473
16,Cc1ccc(CCC(=O)N(CCC#N)C2CCOCC2)c(C)c1 [CBK305809],50.2187
17,c1ccc2c(CCN3CCC(Oc4nccnc4OCCN4CCOCC4)CC3)c[nH]c2c1 [CBK082939T],93.1881
18,CCc1ccc2[nH]c(=O)c(CN(CCN(C)C)C(=S)NCc3ccccc3)cc2c1 [CBK134905],91.6014
19,COCCNC(=O)CC1Sc2ccccc2NC1=O (centres unmarked) [CBK268443],109.823
20,COc1nc(OC)nc(Sc2ccc(N)cc2)n1 [CBK019319],70.3655
21,CCC(=O)NC(=S)Nc1cccc(NC(=O)c2cccc(Cl)c2)c1 [CBK058759],109.525
22,COc1ccc([C@@]23CC[C@@H](NC(=O)Nc4cccc(-c5nn[nH]n5)c4)C[C@@H]2N(C)CC3)cc1OC [CBK051273T],86.8041
23,CCOC(=O)c1sc(NC(=O)c2ccccc2Br)nc1C [CBK067745],85.6105
24,Cn1c(N)nc2c(ncn2[C@H]2C[C@@H](O)[C@@H](CO)O2)c1=O [CBK201215],76.9748
25,C#C[C@H]1C[N@@]2CC[C@H]1C[C@@H]2CNS(=O)(=O)c1cccc(C#N)c1 [CBK288753],97.2365

row,SMILES,% of control remaining
1,CS(=O)(=O)N(CC(=O)NCc1ccccn1)c1cc(Cl)cc(Cl)c1 [CBK266459],107.226
2,Cc1nn(C)c(C)c1CC(=O)NC1CCN(c2c(F)cccc2F)C1 (centres unmarked) [CBK306307],73.4359
3,CNC(=O)c1ccc(-c2ccc(CNC(=O)C(C)Oc3ccc(C)c(C)c3)cc2)nc1C (centres unmarked) [CBK286014],100.043
4,Cc1nn(C)c(C)c1CC(=O)Nc1nc(C(C)(C)C)cs1 [CBK250992],48.8318
5,Cc1ccc(NS(=O)(=O)c2ccc(CCC(=O)N3CCc4ccccc4C3)cc2)cc1 [CBK267616],84.2136
6,O=C(Nc1ccc(=O)n2c1[C@@H]1C[C@@H](CN(C(=O)c3ccc(F)cc3)C1)C2)c1cncnc1 [CBK288713],104.805
7,CCOc1c(CNCCN2CCOCC2)cccc1OC [CBK278182C],121.156
8,COc1cccc(CCNC(=O)NC(=O)C2CCN(S(C)(=O)=O)CC2)c1 [CBK034860],102.954
9,Cc1cccc(-n2c(N)cc(=O)nc2SC(C)C(=O)Nc2ccc(S(N)(=O)=O)cc2)c1 (centres unmarked) [CBK266173],102.152
10,O=C(O)C1CCCCC1C(=O)N1CCN(Cc2cccc3ccccc23)CC1 (centres unmarked) [CBK270293],95.9754
11,O=C1Cc2cc3ccccc3cc2C2(CCN(C(=O)c3ccccc3C(=O)O)CC2)N1 [CBK047216],109.689
12,Cc1oc(C(=O)Nc2cccc(CCc3ccncc3)c2)cc1CN1CCOCC1 [CBK285547],123.024
13,C=CCN1C(=O)C2(CC(=O)N(CC)C2=O)c2cc(F)ccc21 (centres unmarked) [CBK075318],92.9973
14,COc1ccc(-n2cc(-c3ccc(F)cc3)nn2)cc1 [CBK113111],101.838
15,Ic1ccc2ncnc(NCCN3CCOCC3)c2c1 [CBK265655],85.0375
16,COc1ccccc1NC(=O)c1ccc(OC(C)C(=O)O)cc1 (centres unmarked) [CBK266109],148.974
17,CCCS(=O)(=O)N1CCN(C(=O)COc2ccc3ccccc3c2)CC1 [CBK264290],93.9305
18,COc1ccc(CC(=O)N2CCC(c3cccc(Cc4cccc(F)c4)n3)CC2)cc1 [CBK286504],113.786
19,O=C(c1cc[nH]n1)N1CCC2(CC1)Nc1ccccc1-n1cccc12 [CBK283652],83.0524
20,Cc1cccn2c(CN3CCC(O)CC3)c(C(=O)N3CCOCC3)nc12 [CBK306546],92.5979
21,O=C(NCc1cccnc1)c1ccc(-c2ccoc2)nc1 [CBK156275],115.822
22,CC1CCN(Cc2ccc(-c3cn(CC(=O)NCc4ccc(Br)cc4F)nn3)cc2)CC1 [CBK165756C],29.8936
23,O=C(NCCc1cccs1)Nc1ccc(Cl)c(C(F)(F)F)c1 [CBK043775],76.6592
24,CCOc1nccnc1N1CCNCC1 [CBK001899G],65.5966
25,OC(CN1CCC2(CC1)CC(O)c1ccccc1O2)c1ccc(-c2ccccc2)cc1 (centres unmarked) [CBK286347],74.6764
